Shown are siRNA guide strands that differ only in the seed, positions 2 to 7.
Legend:
[1] = tested on: H4; experiment: cell viability relative to siNT1 (ATP content); H4 human neuroglioma and GL261 mouse glioma; higher = less toxic; conditions: siRNA concentration 10 nM; 96 h; human
[2] = tested on: GL261; experiment: as above; conditions: siRNA concentration 25 nM; 96 h; mouse
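Also: cells reverse transfected with siRNA duplexes via lipid reagent, ATP read by luminescence, triplicate wells, values scaled to mean viability with non-targeting control siNT1.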

| Sequence | cell viability [1] | cell viability [2] |
| --- | --- | --- |
| UUAUGAUACAUGUAAACCA | 51.3% | 46.8% |
| UUAUGCAACAUGUAAACCA | 41.2% | 53.8% |
| UUAUGCCACAUGUAAACCA | 11.2% | 22.5% |
| UUAUGCGACAUGUAAACCA | 68.2% | 39.8% |
| UUAUGCUACAUGUAAACCA | 11.5% | 40.4% |
| UUAUGGAACAUGUAAACCA | 37.7% | 43.2% |
| UUAUGGCACAUGUAAACCA | 31.8% | 15.4% |
| UUAUGGGACAUGUAAACCA | 11.2% | 22.1% |
| UUAUGGUACAUGUAAACCA | 17.6% | 35.7% |
| UUAUGUAACAUGUAAACCA | 90.2% | 44.1% |
| UUAUGUCACAUGUAAACCA | 30.8% | 22.8% |
| UUAUGUGACAUGUAAACCA | 60.2% | 47.8% |
| UUAUGUUACAUGUAAACCA | 71.1% | 34.4% |
| UUAUUAAACAUGUAAACCA | 114% | 40.4% |
| UUAUUACACAUGUAAACCA | 47.9% | 17.4% |
| UUAUUAGACAUGUAAACCA | 94.7% | 27.1% |
| UUAUUAUACAUGUAAACCA | 103% | 33.6% |
| UUAUUCAACAUGUAAACCA | 76.8% | 22.7% |
| UUAUUCCACAUGUAAACCA | 47.4% | 11.4% |
| UUAUUCGACAUGUAAACCA | 77.4% | 31.2% |
| UUAUUCUACAUGUAAACCA | 58.4% | 14.9% |
| UUAUUGAACAUGUAAACCA | 78.7% | 60% |
| UUAUUGCACAUGUAAACCA | 34.5% | 39.3% |
| UUAUUGGACAUGUAAACCA | 83% | 32.1% |

| Sequence | cell viability [1] | cell viability [2] |
| --- | --- | --- |
| UUAUUGUACAUGUAAACCA | 77% | 43% |
| UUAUUUAACAUGUAAACCA | 95% | 30.6% |
| UUAUUUCACAUGUAAACCA | 64.5% | 35% |
| UUAUUUGACAUGUAAACCA | 93.4% | 44.8% |
| UUAUUUUACAUGUAAACCA | 72% | 19.6% |
| UUCAAAAACAUGUAAACCA | 87.7% | 82.6% |
| UUCAAACACAUGUAAACCA | 114% | 44% |
| UUCAAAGACAUGUAAACCA | 102% | 61% |
| UUCAAAUACAUGUAAACCA | 69.7% | 58.4% |
| UUCAACAACAUGUAAACCA | 109% | 46.5% |
| UUCAACCACAUGUAAACCA | 28.3% | 10.2% |
| UUCAACGACAUGUAAACCA | 97.9% | 46.2% |
| UUCAACUACAUGUAAACCA | 74% | 39.9% |
| UUCAAGAACAUGUAAACCA | 111% | 41% |
| UUCAAGCACAUGUAAACCA | 64% | 37.6% |
| UUCAAGGACAUGUAAACCA | 93.6% | 29.8% |
| UUCAAGUACAUGUAAACCA | 77.8% | 37.4% |
| UUCAAUAACAUGUAAACCA | 84.8% | 66.5% |
| UUCAAUCACAUGUAAACCA | 81.2% | 45.4% |
| UUCAAUGACAUGUAAACCA | 106% | 57.7% |
| UUCAAUUACAUGUAAACCA | 92.1% | 60% |
| UUCACAAACAUGUAAACCA | 99.3% | 31.4% |
| UUCACACACAUGUAAACCA | 46.5% | 21.4% |
| UUCACAGACAUGUAAACCA | 92.7% | 18% |

| Sequence | cell viability [1] | cell viability [2] |
| --- | --- | --- |
| UUCACAUACAUGUAAACCA | 62.1% | 38.2% |
| UUCACCAACAUGUAAACCA | 87.5% | 28.3% |
| UUCACCCACAUGUAAACCA | 96.7% | 41.1% |
| UUCACCGACAUGUAAACCA | 120% | 32.9% |
| UUCACCUACAUGUAAACCA | 84.9% | 22.2% |
| UUCACGAACAUGUAAACCA | 92.5% | 50.5% |
| UUCACGCACAUGUAAACCA | 95.8% | 11.6% |
| UUCACGGACAUGUAAACCA | 120% | 43.9% |
| UUCACGUACAUGUAAACCA | 109% | 49.2% |
| UUCACUAACAUGUAAACCA | 116% | 53.4% |
| UUCACUCACAUGUAAACCA | 103% | 37.8% |
| UUCACUGACAUGUAAACCA | 99.7% | 44% |
| UUCACUUACAUGUAAACCA | 98.7% | 34.5% |
| UUCAGAAACAUGUAAACCA | 115% | 59.2% |
| UUCAGACACAUGUAAACCA | 57.8% | 16.5% |
| UUCAGAGACAUGUAAACCA | 79% | 49.9% |
| UUCAGAUACAUGUAAACCA | 75.5% | 47.3% |
| UUCAGCAACAUGUAAACCA | 54.8% | 34.1% |
| UUCAGCCACAUGUAAACCA | 45.2% | 17.8% |
| UUCAGCGACAUGUAAACCA | 109% | 38.7% |
| UUCAGCUACAUGUAAACCA | 59.6% | 13.8% |
| UUCAGGAACAUGUAAACCA | 99.5% | 40.4% |
| UUCAGGCACAUGUAAACCA | 59.3% | 24.4% |
| UUCAGGGACAUGUAAACCA | 89.6% | 19% |

| Sequence | cell viability [1] | cell viability [2] |
| --- | --- | --- |
| UUCAGGUACAUGUAAACCA | 84.3% | 21.1% |
| UUCAGUAACAUGUAAACCA | 89.9% | 44.3% |
| UUCAGUCACAUGUAAACCA | 103% | 29.6% |
| UUCAGUGACAUGUAAACCA | 87.3% | 44.4% |
| UUCAGUUACAUGUAAACCA | 53.4% | 26.4% |
| UUCAUAAACAUGUAAACCA | 106% | 36.1% |
| UUCAUACACAUGUAAACCA | 101% | 53.1% |
| UUCAUAGACAUGUAAACCA | 74.2% | 53.5% |
| UUCAUAUACAUGUAAACCA | 81.4% | 50.6% |
| UUCAUCAACAUGUAAACCA | 79.2% | 37.7% |
| UUCAUCCACAUGUAAACCA | 62.8% | 25.1% |
| UUCAUCGACAUGUAAACCA | 94.6% | 70.7% |
| UUCAUCUACAUGUAAACCA | 71.5% | 23.4% |
| UUCAUGAACAUGUAAACCA | 75.6% | 48.2% |
| UUCAUGCACAUGUAAACCA | 67.1% | 20.4% |
| UUCAUGGACAUGUAAACCA | 82.9% | 45.5% |
| UUCAUGUACAUGUAAACCA | 109% | 34% |
| UUCAUUAACAUGUAAACCA | 93.8% | 63.6% |
| UUCAUUCACAUGUAAACCA | 101% | 41% |
| UUCAUUGACAUGUAAACCA | 75% | 57.5% |
| UUCAUUUACAUGUAAACCA | 100% | 48.9% |
| UUCCAAAACAUGUAAACCA | 115% | 79.1% |
| UUCCAACACAUGUAAACCA | 84% | 61.6% |
| UUCCAAGACAUGUAAACCA | 74.6% | 77.9% |

| Sequence | cell viability [1] | cell viability [2] |
| --- | --- | --- |
| UUCCAAUACAUGUAAACCA | 87.1% | 69.2% |
| UUCCACAACAUGUAAACCA | 89.4% | 45.5% |
| UUCCACCACAUGUAAACCA | 57.3% | 31.1% |
| UUCCACGACAUGUAAACCA | 93.3% | 48.3% |
| UUCCACUACAUGUAAACCA | 69.9% | 53% |
| UUCCAGAACAUGUAAACCA | 89.9% | 43.4% |
| UUCCAGCACAUGUAAACCA | 41.8% | 26% |
| UUCCAGGACAUGUAAACCA | 70.1% | 39% |
| UUCCAGUACAUGUAAACCA | 67.9% | 41.5% |
| UUCCAUAACAUGUAAACCA | 110% | 31.2% |
| UUCCAUCACAUGUAAACCA | 68.8% | 45.2% |
| UUCCAUGACAUGUAAACCA | 91.4% | 37.2% |
| UUCCAUUACAUGUAAACCA | 118% | 31.8% |
| UUCCCAAACAUGUAAACCA | 92.4% | 45.8% |
| UUCCCACACAUGUAAACCA | 65.7% | 56% |
| UUCCCAGACAUGUAAACCA | 85.5% | 42.5% |
| UUCCCAUACAUGUAAACCA | 93.2% | 35.6% |
| UUCCCCAACAUGUAAACCA | 95.3% | 42.6% |
| UUCCCCCACAUGUAAACCA | 48.5% | 31% |
| UUCCCCGACAUGUAAACCA | 82.7% | 54.7% |
| UUCCCCUACAUGUAAACCA | 65.7% | 29.2% |
| UUCCCGAACAUGUAAACCA | 92.1% | 66.2% |
